# Measured values from the supplement of paper PMC4604168 (melanoma cell lines).
# The list shows a part of the results. Many values rest on one well or one pass, so single values are uncertain.
# How the values were obtained:
# Assay in all cases: cell count relative to DMSO control; melanoma cells; higher = more viable cells
# Details in all cases: library dose: standard library concentration; 72 h
# [1] = system: G361
# [2] = system: IPC-298
# [3] = system: IST-MEL1
# [4] = system: LB2518-MEL
# [5] = system: LOXIMVI
# [6] = system: MEL-HO
# [7] = system: MZ2-MEL
# [8] = system: MeWo
# [9] = system: RPMI7951
# [10] = system: RVH-421
# [11] = system: SkMel28
# [12] = system: SkMel2
# [13] = system: SkMel30
# [14] = system: SkMel5
# [15] = system: UACC257
# [16] = system: UACC62
# [17] = system: WM115
# [18] = system: WM1716
# [19] = system: WM3526
# [20] = system: WM1745
# 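Also: cells treated in 1,536-well plates, then fixed and DAPI-stained, with nuclei counted from automated high-throughput microscope images.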
Compound,cell count [1],cell count [2],cell count [3],cell count [4],cell count [5],cell count [6],cell count [7],cell count [8],cell count [9],cell count [10],cell count [11],cell count [12],cell count [13],cell count [14],cell count [15],cell count [16],cell count [17],cell count [18],cell count [19],cell count [20]
"NC1(c2ccc(-c3nc4ccn5c(=O)[nH]nc5c4cc3-c3ccccc3)cc2)CCC1 + C/C(O)=C(\C#N)C(=O)Nc1cc(Br)ccc1Br [LFM-A13] (first compound 2 µM, partner dose 10 µM)",87.1%,102%,108%,88.6%,84%,68.5%,107%,70.4%,72.4%,92.7%,69.2%,68.3%,89.8%,60.9%,106%,83.2%,67.9%,87.2%,67.5%,
"Cc1cc(SCc2sc(-c3ccc(C(F)(F)F)c(F)c3)nc2C)ccc1OCC(=O)O + Cn1cc(/C=C2\C(=O)Nc3cccnc32)c2ccccc21 [GW441756] (first compound 10 µM, partner dose 2 µM)",82.8%,74.4%,92.3%,69%,54.9%,89.1%,86.7%,117%,115%,90.1%,97.9%,103%,91%,59.7%,80.5%,78.6%,94.8%,105%,100%,65.2%
"CNC(=O)c1cc(Oc2ccc(NC(=O)Nc3ccc(Cl)c(C(F)(F)F)c3)cc2)ccn1 [sorafenib] + Cc1cc(SCc2sc(-c3ccc(C(F)(F)F)c(F)c3)nc2C)ccc1OCC(=O)O [GW0742] (first compound 2 µM, partner dose 10 µM)",68.8%,83.3%,84.6%,79.4%,109%,78.9%,91.7%,91.1%,62%,97.6%,92.5%,95.3%,103%,94%,66.5%,91.5%,113%,73.4%,82.5%,
"C=CCNC1=C2C[C@@H](C)C[C@H](OC)[C@H](O)[C@@H](C)/C=C(\C)[C@H](OC(N)=O)[C@@H](OC)/C=C\C=C(/C)C(=O)NC(=CC1=O)C2=O [Tanespimycin] + Cc1cc(SCc2sc(-c3ccc(C(F)(F)F)c(F)c3)nc2C)ccc1OCC(=O)O [GW0742] (first compound 0.01 µM, partner dose 10 µM)",89.9%,97.3%,96.4%,93.8%,67.7%,88.3%,97.5%,79.7%,68.1%,98.6%,94.9%,113%,108%,91.1%,103%,93.2%,57.6%,78.6%,77.1%,
"NC1(c2ccc(-c3nc4ccn5c(=O)[nH]nc5c4cc3-c3ccccc3)cc2)CCC1 + O=C(Oc1ccc([N+](=O)[O-])cc1)N1CCC(C(O)(c2ccc3c(c2)OCO3)c2ccc3c(c2)OCO3)CC1 [JZL184] (first compound 2 µM, partner dose 5 µM)",92%,121%,93.7%,116%,91.2%,82.2%,108%,91.7%,81.4%,85.3%,78.1%,76.2%,103%,75.3%,81.7%,77.2%,66.5%,82.3%,75.5%,
"Cn1c(=O)n(-c2ccc(C(C)(C)C#N)cc2)c2c3cc(-c4cnc5ccccc5c4)ccc3ncc21 + Cc1cc(SCc2sc(-c3ccc(C(F)(F)F)c(F)c3)nc2C)ccc1OCC(=O)O [GW0742] (first compound 0.02 µM, partner dose 10 µM)",88%,95.9%,89%,100%,117%,81.3%,96.8%,77.8%,96.6%,82.5%,79.8%,83.8%,96.8%,109%,91.6%,93.4%,77.9%,91.8%,106%,
"Cc1ccc(Nc2nccc(N(C)c3ccc4c(C)n(C)nc4c3)n2)cc1S(N)(=O)=O [Pazopanib] + O=C(Oc1ccc([N+](=O)[O-])cc1)N1CCC(C(O)(c2ccc3c(c2)OCO3)c2ccc3c(c2)OCO3)CC1 [JZL184] (first compound 2 µM, partner dose 5 µM)",81.7%,84.9%,131%,99.1%,93.3%,104%,94.1%,92.4%,98.8%,131%,72.8%,115%,83.1%,80.3%,87%,94.8%,101%,97.2%,83.8%,
"CS(=O)(=O)c1ccc(C(=O)Nc2ccc(Cl)c(-c3ccccn3)c2)c(Cl)c1 [vismodegib] + O=C(Oc1ccc([N+](=O)[O-])cc1)N1CCC(C(O)(c2ccc3c(c2)OCO3)c2ccc3c(c2)OCO3)CC1 [JZL184] (first compound 5 µM, partner dose 5 µM)",110%,112%,92.4%,140%,93.1%,98%,140%,93.5%,88.9%,113%,98.1%,108%,90%,99.6%,95.4%,72.1%,126%,99.4%,82.6%,
